Measured values as given in PubChem BioAssay AID493035 (The Scripps Research Institute Molecular Screening Center, 2011).
Out of some 2,000 compounds screened, about 45 (2%) were called active.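 How the source made its calls: active means inhibition above the mean of all tested compounds plus 3 SD (cut at about 49% in these data); inactive means the rest.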 The list shows a part of the results.

biological target: Perilipin-5 (Homo sapiens) + 1-acylglycerol-3-phosphate O-acyltransferase ABHD5 (Homo sapiens) (UniProt Q00G26+Q8WTS1); experiment: blockers of ABHD5 binding to perilipin-5 – cell lysate, split luciferase complementation, luminescence, NIH validation set, pilot screen (AID 493035);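 further: 0% = DMSO only wells while the 100% control is not stated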; conditions: split G. princeps luciferase complementation, lysates, 4 h; at 7.9 µM, stronger effect = higher value
Sequence of UniProt Q00G26 (Q00G26 whole entry, looked up): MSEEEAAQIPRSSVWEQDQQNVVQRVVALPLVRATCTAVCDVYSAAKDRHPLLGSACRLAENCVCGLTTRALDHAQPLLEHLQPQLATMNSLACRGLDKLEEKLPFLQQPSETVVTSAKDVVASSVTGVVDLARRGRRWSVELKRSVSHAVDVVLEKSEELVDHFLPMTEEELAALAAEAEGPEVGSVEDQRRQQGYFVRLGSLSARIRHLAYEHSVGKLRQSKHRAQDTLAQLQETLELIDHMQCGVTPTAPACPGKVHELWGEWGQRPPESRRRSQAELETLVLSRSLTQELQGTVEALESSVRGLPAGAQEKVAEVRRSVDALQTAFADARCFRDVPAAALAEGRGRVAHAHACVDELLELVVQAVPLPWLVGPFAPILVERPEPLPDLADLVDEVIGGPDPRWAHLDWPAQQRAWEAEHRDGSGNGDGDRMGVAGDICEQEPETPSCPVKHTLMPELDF
Sequence of UniProt Q00G26 (Q8WTS1 whole entry, looked up): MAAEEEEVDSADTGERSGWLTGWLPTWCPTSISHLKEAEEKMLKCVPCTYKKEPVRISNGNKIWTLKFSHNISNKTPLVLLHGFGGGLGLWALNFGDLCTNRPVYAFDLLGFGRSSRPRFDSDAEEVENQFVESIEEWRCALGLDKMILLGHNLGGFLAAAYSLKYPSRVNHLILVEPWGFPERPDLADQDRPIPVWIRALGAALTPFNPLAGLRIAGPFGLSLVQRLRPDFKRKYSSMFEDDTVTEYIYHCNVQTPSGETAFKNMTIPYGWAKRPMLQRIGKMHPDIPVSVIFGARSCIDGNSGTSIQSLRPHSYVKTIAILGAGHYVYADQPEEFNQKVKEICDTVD

inhibition, inactive:
N/C(=N\OS(=O)(=O)c1ccc2ccccc2c1)c1cccnc1 1.91%, Cc1ccc2[nH]c(=O)c(Cc3ccccc3)c(O)c2c1 -14.1%, CCOC(=O)N1CCC(=C2c3ccc(Cl)cc3CCc3cccnc32)CC1 17.8%, O=C1N=c2ccccc2=C1c1[nH]c(=S)[nH]c1O -4.74%, O=C1C(O)CC2c3ccccc3CC3(CCCC3)N12 (stereo not given) 1.52%, COc1ccccc1N1C(=O)C2CC(C)=C(C)CC2C1=O (stereo not given) -0.16%, CCCCCCCCCC(=O)OCC(O)CO (stereo not given) 0.57%, CN1CCN(C2=Nc3ccccc3Oc3ccc(Cl)cc32)CC1 -17.4%, Cc1cccc(N2C(=O)C3C(c4ccccc4)OC4(C(=O)c5ccccc5C4=O)C3C2=O)c1 (stereo not given) 2.12%, O=C(O)Cc1ccc(-c2ccccc2)cc1 3.16%, CCOC(=O)C1=C2c3ccc4ccccc4c3CC(C)(C)N2C(=O)C1=O 8.2%, C[C@@H]1C[C@H]2[C@@H]3C[C@H](F)C4=CC(=O)C=C[C@]4(C)[C@@]3(F)[C@@H](O)C[C@]2(C)[C@@]1(O)C(=O)CO -5.31%, O=C(/C=C/c1ccc(F)cc1)N1CC[C@@]2(O)CCCC[C@H]2C1 -2.04%, COc1c(O)ccc2c1CN1CCc3cc4c(cc3C1C2)OCO4 (stereo not given) 15.5%, CCNC1=C(Cl)C(=O)c2ccccc2C1=O -3.74%, COC(=O)C1=C(C)NC(C)=C([N+](=O)[O-])C1c1ccccc1C(F)(F)F (stereo not given) -2.75%, Nc1ccc(-c2nc3ncccc3o2)c(Cl)c1 -10.8%, O=C1C2CC=C(Cl)CC2C(=O)N1CCc1c[nH]c2ccccc12 (stereo not given) -10.1%, CCOc1ccccc1Oc1coc2cc(OCC(=O)O)ccc2c1=O -5.58%, CCn1cc(CN2N=C(C)CC2c2ccccc2)c(C)n1 (stereo not given) 2.34%, CC[N+](C)(CC)CCOC(=O)C(O)(c1ccccc1)C1CCCCC1 (stereo not given) -6.34%, C/C=C/c1ccc(OCCCCN2CC(C)CC(C)C2)c(OC)c1 (stereo not given) -7.28%, O=C(Cc1ccc(Br)cc1)c1ccc(O)cc1O 12.4%, COc1cc(/C=C/C(=O)O)cc(S(=O)(=O)NCCCO)c1OC -2.54%, COc1ccc2[nH]c(=O)c3c(c2c1)OC(C)(C)C=C3 -3.54%, O=C(NC(=S)Nc1ccc(N2CCN(C(=O)c3ccccc3)CC2)cc1)c1cccs1 11.4%, CN(C)c1ccc(C(CN)c2c[nH]c3ccccc23)cc1 (stereo not given) 22.8%, Cc1ccc(-c2nnc(-c3ccc4c(c3)OCO4)o2)cc1 -9.18%, COc1ccc(OC)c(-c2oc3ccccc3c(=O)c2O)c1 -12.5%, Cc1nc2ccccc2c(=O)n1N -8.57%, N#CCC(N)=C(C#N)C#N -2.18%, CCN(CC)CCOC(=O)C1(C2CCCCC2)CCCCC1 -14.8%, CN(C)CCCN1c2ccccc2Sc2ccc(C(F)(F)F)cc21 -26.9%, Cc1ccc2c(c1)c1c(n2C)C(=O)CCC1 0.25%, COc1ccc(C(=O)NCC2OCCc3ccccc32)cc1 (stereo not given) -9.11%, CCCCN(CCCC)CCCOC(=O)c1ccc(N)cc1 -0.44%, O=C(NCc1ccc2c(c1)OCO2)c1ccc2c(c1)OCCO2 -3.72%, O=C(O)CCCCCCCC(=O)O -1.68%, O=C(NC(=S)Nc1ccc2c(c1)OCCO2)c1ccccc1F -6.48%, NS(=O)(=O)c1cc(C2(O)NC(=O)c3ccccc32)ccc1Cl (stereo not given) 12.6%, CC(=O)Nc1ccc(OS(=O)(=O)c2c(C)cc(C)cc2C)cc1 -5.69%, COc1ccc(NC(=O)C2CCCN2C(=O)OC(C)(C)C)cc1 (stereo not given) -12.9%, CC(=O)OCC(=O)[C@@]1(O)CC[C@H]2[C@@H]3CCC4=CC(=O)CC[C@]4(C)[C@H]3[C@@H](O)C[C@@]21C 1.35%, CC[N+](C)(C)c1cccc(O)c1 0.72%, COc1ccc2oc(C)c(C(N)=O)c2c1 -3.38%, CN1CCN(CC/C=C2/c3ccccc3Sc3ccc(S(=O)(=O)N(C)C)cc32)CC1 -14.3%, CN1CCC(=C2c3ccccc3C=Cc3ccccc32)CC1 -4.36%, Cn1cc(CN(CCO)Cc2cccs2)c(-c2cccc(Cl)c2)n1 -9.26%, CCCc1cc(C(N)=S)ccn1 1.88%, Cc1ccc2[nH]c3c(c2c1)CN(C)CC3 3.97%, CC(C)CCOCC(=O)Nc1cccc(C(=O)O)c1 -0.57%, CC(=O)c1cc2c(cc1NC(=O)c1ccco1)OCCO2 -5.01%, CC(=O)OC(CC(=O)O)C[N+](C)(C)C (stereo not given) -14.8%, CC1(C)Cc2ccccc2C(C(Cc2ccccc2)C(N)=O)=N1 (stereo not given) -3.97%, CCOC(=O)/C=C1\NC(C)(C)Cc2cc(OC)c(OC)cc21 1.87%, CC12CN3CC(C)(CN(C1)C3c1ccc(Br)cc1O)C2 (stereo not given) 4.72%, O=S(=O)(NCCCCCNS(=O)(=O)c1ccccc1)c1ccccc1 -0.28%, CCc1ccc(/C=C2\SC(=S)N(CCC(=O)N3CCN(C)CC3)C2=O)cc1 -12.7%, COC(=O)c1cc(=O)c2ccc(OC)cc2o1 -10.2%, Cc1cccc(C)c1NS(=O)(=O)c1ccc(NC(=O)c2ccc(Cl)c([N+](=O)[O-])c2)cc1 29.4%, COc1cc(CNCCc2ccccc2F)ccc1OCC(=O)N1CCCCC1 -13.4%, CC(O)Cn1cnc2c1c(=O)n(C)c(=O)n2C (stereo not given) 1.51%, O=C(NC(=S)N1CCCCC1)c1cccnc1 0.95%, NS(=O)(=O)c1cc2c(cc1C(F)(F)F)NCNS2(=O)=O 1.5%, CC(C)C12CN3CC(C(C)C)(CN(C1)C3c1ccccc1O)C2=O (stereo not given) 0.76%
